The list shows a part of the results. No stated cut-off is given here; in the data, active = 3.2 or more and inactive = the rest. The signal is at background level for most entries.
Key:
Assay in all cases: enrichment score (SH2-bound / input frequency) (ratio); bacterial display of known human phosphotyrosine sites (pTyr-Var adds point mutants) read by sequencing; higher = stronger binding; tyrosines were phosphorylated by kinases first
Details in all cases: peptide library: Human pTyr
SHP2 C-SH2 domain E139D = target: SHP2 C-SH2 domain E139D
[1] = target: SHP2 C-SH2 domain wild-type
SHP2 N-SH2 domain L43F = target: SHP2 N-SH2 domain L43F
SHP2 N-SH2 domain T42A = target: SHP2 N-SH2 domain T42A
SHP2 N-SH2 domain T52S = target: SHP2 N-SH2 domain T52S
[2] = target: SHP2 N-SH2 domain wild-type
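Further: displayed peptides selected on beads carrying the immobilized SH2 domain, with library peptides lacking any tyrosine serving as negative controls.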

| Binder | enrichment score (SHP2 C-SH2 domain E139D) | enrichment score [1] | enrichment score (SHP2 N-SH2 domain L43F) | enrichment score (SHP2 N-SH2 domain T42A) | enrichment score (SHP2 N-SH2 domain T52S) | enrichment score [2] |
| --- | --- | --- | --- | --- | --- | --- |
| GDVHQGIYMSPENPA [PTK2_HUMAN_441] | inactive: 0.499 | inactive: 0.508 | inactive: 0.638 | inactive: 0.435 | inactive: 0.527 | inactive: 0.522 |
| SEKPSADYVLSVRDT [PTK6_HUMAN_114] | inactive: 0.743 | inactive: 0.556 | inactive: 0.781 | inactive: 0.557 | inactive: 0.682 | inactive: 0.905 |
| GGAVAQGYVPHNYLA [PTK6_HUMAN_61] | inactive: 0.607 | inactive: 0.509 | inactive: 0.536 | inactive: 0.505 | inactive: 0.504 | inactive: 0.55 |
| KDVYNSEYYHFRQAW [PTK7_HUMAN_960] | inactive: 1.04 | inactive: 0.792 | inactive: 1.02 | inactive: 1.06 | inactive: 0.901 | inactive: 0.797 |
| KDVANSEYAHFRQAW [PTK7_HUMAN_960_YA] | inactive: 0.784 | inactive: 0.731 | inactive: 0.948 | inactive: 0.797 | inactive: 1.04 | inactive: 0.771 |
| DVYNSEYYHFRQAWV [PTK7_HUMAN_961] | inactive: 1.3 | inactive: 1.26 | inactive: 0.981 | inactive: 1.15 | inactive: 0.981 | inactive: 1.33 |
| DVANSEAYHFRQAWV [PTK7_HUMAN_961_YA] | inactive: 0.748 | inactive: 0.692 | inactive: 0.736 | inactive: 0.786 | inactive: 0.566 | inactive: 0.652 |
| SGSWAAIYQDIRHEA [PTN1_HUMAN_20] | inactive: 0.946 | inactive: 1.05 | inactive: 0.965 | inactive: 0.929 | inactive: 1.44 | inactive: 0.906 |
| KIQNTGDYADLAGGE [PTN11_HUMAN_62_YA] | inactive: 0.881 | inactive: 0.673 | inactive: 0.768 | inactive: 0.664 | inactive: 0.823 | inactive: 0.887 |
| SPAGSGAYEDVAGGA [PTN18_HUMAN_426] | inactive: 0.587 | inactive: 0.465 | inactive: 0.587 | inactive: 0.534 | inactive: 0.632 | inactive: 0.643 |
| MQRAYGPYSVTNCGE [PTN6_HUMAN_377] | inactive: 0.864 | inactive: 0.778 | inactive: 0.82 | inactive: 0.794 | inactive: 0.739 | inactive: 0.836 |
| SKHKEDVYENLHTKN [PTN6_HUMAN_564] | inactive: 1.23 | inactive: 1.27 | inactive: 1.1 | inactive: 1.06 | inactive: 1.2 | inactive: 1.15 |
| SGDFYDLYGGEKFAT [PTN6_HUMAN_64] | inactive: 0.7 | inactive: 0.651 | inactive: 0.657 | inactive: 0.756 | inactive: 0.528 | inactive: 0.712 |
| SGDFADLYGGEKFAT [PTN6_HUMAN_64_YA] | inactive: 0.611 | inactive: 0.449 | inactive: 0.41 | inactive: 0.564 | inactive: 0.594 | inactive: 0.4 |
| GHAMADTYAVVQKRG [PTPN18_HUMAN_354] | inactive: 0.959 | inactive: 1 | inactive: 0.9 | inactive: 0.89 | inactive: 0.982 | inactive: 0.893 |
| MVSTFEQYQFLADVI [PTPRC_HUMAN_1216_YA] | inactive: 1.15 | inactive: 1.11 | inactive: 1.1 | inactive: 1.03 | inactive: 1.04 | inactive: 1.27 |
| FNQNKNRYVDILPYD [PTPRC_HUMAN_681] | inactive: 2.65 | active: 8.19 | inactive: 1.25 | inactive: 2.22 | inactive: 1.57 | inactive: 1.17 |
| FTPDHVVYARSKTAV [PTRF_HUMAN_308] | inactive: 0.669 | inactive: 0.726 | inactive: 0.876 | inactive: 0.584 | inactive: 0.595 | inactive: 0.73 |

| Binder | enrichment score (SHP2 C-SH2 domain E139D) | enrichment score [1] | enrichment score (SHP2 N-SH2 domain L43F) | enrichment score (SHP2 N-SH2 domain T42A) | enrichment score (SHP2 N-SH2 domain T52S) | enrichment score [2] |
| --- | --- | --- | --- | --- | --- | --- |
| EGKTKEVYELLDSPG [PUR6_HUMAN_22] | inactive: 0.739 | inactive: 0.818 | inactive: 0.646 | inactive: 0.762 | inactive: 0.823 | inactive: 0.783 |
| SANGHVSYSAVSREN [PVR_HUMAN_398] | inactive: 2.11 | active: 5.71 | inactive: 0.794 | inactive: 0.871 | inactive: 0.535 | inactive: 0.643 |
| FAAKMPRYRGAALAR [ASAP3_HUMAN_34] | inactive: 0.815 | inactive: 0.889 | inactive: 1.08 | inactive: 0.825 | inactive: 0.944 | inactive: 0.897 |
| FTLPVHFYGHVEHTS [PYGM_HUMAN_204] | inactive: 2.63 | inactive: 2.52 | inactive: 2.18 | inactive: 2.26 | inactive: 2.7 | inactive: 2.74 |
| DLNNGKFYVGVCAFV [RAD52_HUMAN_104] | inactive: 2.02 | inactive: 1.57 | inactive: 1.38 | inactive: 1.66 | inactive: 1.44 | inactive: 2.27 |
| AQREGAKYVSHGATG [ASSY_HUMAN_113] | inactive: 0.809 | inactive: 0.672 | inactive: 0.726 | inactive: 0.702 | inactive: 0.682 | inactive: 0.831 |
| EETGDTLYAPASTHF [RAI3_HUMAN_317_YA] | inactive: 0.703 | inactive: 0.488 | inactive: 0.712 | inactive: 0.655 | inactive: 0.742 | inactive: 0.718 |
| GDTLAAPYSTHFQLQ [RAI3_HUMAN_320_YA] | inactive: 0.725 | inactive: 0.667 | inactive: 0.548 | inactive: 0.503 | inactive: 0.614 | inactive: 0.582 |
| AHAWPSPYKDYEVKK [RAI3_HUMAN_347] | inactive: 0.671 | inactive: 0.889 | inactive: 1 | inactive: 0.927 | inactive: 0.943 | inactive: 0.963 |
| AHAWPSPYKDAEVKK [RAI3_HUMAN_347_YA] | inactive: 1.45 | inactive: 1.32 | inactive: 1.29 | inactive: 0.959 | inactive: 1.44 | inactive: 1.33 |
| WPSPYKDYEVKKEGS [RAI3_HUMAN_350] | inactive: 1.18 | inactive: 1.05 | inactive: 0.867 | inactive: 1.08 | inactive: 0.763 | inactive: 1.12 |
| SALYEDRYLLGTSLA [ASSY_HUMAN_87] | inactive: 0.514 | inactive: 0.561 | inactive: 0.621 | inactive: 0.494 | inactive: 0.538 | inactive: 0.512 |
| AAELVNNYGKGWSLK [RAPSN_HUMAN_196] | inactive: 0.764 | inactive: 1.04 | inactive: 0.601 | inactive: 0.823 | inactive: 1.4 | inactive: 1.24 |
| VKHFTNPYCNIALNS [RASA1_HUMAN_615_YA] | inactive: 1.52 | inactive: 1.84 | inactive: 1.43 | inactive: 1.39 | inactive: 1.32 | inactive: 1.53 |
| GGNYRDNYDNGGGGG [RBM3_HUMAN_155] | inactive: 0.784 | inactive: 0.565 | inactive: 0.77 | inactive: 0.492 | inactive: 0.748 | inactive: 0.691 |
| DRRFRGRYRSPASGP [RBM39_HUMAN_95_YA] | inactive: 0.586 | inactive: 0.65 | inactive: 0.633 | inactive: 0.752 | inactive: 0.471 | inactive: 0.562 |
| SPKSQDSYPGSPSLS [RBP10_HUMAN_362] | inactive: 0.593 | inactive: 0.889 | inactive: 0.695 | inactive: 0.546 | inactive: 0.58 | inactive: 0.568 |
| CAKNRPDYVSEEEED [RBP2_HUMAN_2666_YA] | inactive: 1.42 | inactive: 1.17 | inactive: 1.27 | inactive: 1.07 | inactive: 0.928 | inactive: 1.22 |
